Experimental data: PubChem BioAssay AID686979 (National Center for Advancing Translational Sciences (NCATS), 2013)
Where “and” joins values, the source holds several entries; their conditions need not be identical. Equal values may be shown once. Among all 420,000 compounds or so, about 50,000 (12%) were called active. Inconclusive results, whose numbers are uncertain, are shown with a selection of clear calls. Calls follow the shape of the dose curve; as a rule, active = well fitted inhibition curve with a large enough effect; inconclusive = small, poorly fitted or top-dose-only effect; inactive = flat fitted curve, though single readings scatter. Where the call is inconclusive, the potency comes from a doubtful curve fit.
% is scaled to controls: 0 for no effect and ±100 for the full control effect; potency is read from the fitted curve at half-maximal effect; tags tell the direction and shape of the fitted curve.

Assay: qHTS for Inhibitors of human tyrosyl-DNA phosphodiesterase 1 (TDP1): qHTS in cells in presence of CPT; also: nearly all actives have a fitted effect of over 55% in size
Conditions: chicken DT40 Tdp1-/-;hTDP1 cells + 20 nM CPT, ATP luminescence, 48 h; activity change, negative = growth inhibition: at 46.2 µM (top of the series)
Method in brief: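 Chicken DT40 Tdp1-/- cells stably complemented with human TDP1 were seeded at 400 cells/well in medium containing 20 nM camptothecin, exposed to pin-transferred compounds, and grown at 37 °C for at least 48 hr. Viability was read as ATP luminescence.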
With `COc1ccc(OC(C)C(=O)N(C)Cc2nc(-c3ccccc3)no2)cc1` (centres undefined) the Potency was “inactive”.
In the case of `Cc1ccc(C(=O)CC(C(=O)O)n2cnc([N+](=O)[O-])n2)cc1` (centres undefined), the Potency is reported as inconclusive: 5.8 µM [inhibitor, single point].
With `CC(C)(C)N1C(=O)c2c(C(=O)OCc3ccccc3)[nH]c(-c3ccccc3)c2C1=O` the Potency was “inactive”.
In the case of `Cc1cc2c(cc1C)-c1nnnn1C(N1CCC(Cc3ccccc3)CC1)C(=O)N2` (centres undefined), the Potency is reported as active: 14.6 µM.
In the case of `CCCCCCCCN1C(=O)[C@H](CC(=O)N2CCOCC2)C[C@@]2(C(=O)OCC)CCCC=C12`, the Potency is reported as active: 11.6 µM.
For `CCCCCCNC(=O)O[C@H]1C[C@H](C(=O)OC)[C@H](C(=O)OC)C2CN(S(=O)(=O)c3ccc(C)cc3)C[C@@]21O` (some centres undefined), the Potency was inconclusive: 16.4 µM [inhibitor, single point].
For `CN1CC(=O)NC1=NC(=O)c1ccc(Cl)c(S(=O)(=O)N2CCCCCC2)c1`, the Potency was inconclusive: 14.6 µM [inhibitor, partial curve, poor fit].
For `COc1ccc(C(=O)NC(C)c2ccc(-n3ccnc3)cc2)cc1S(=O)(=O)N1CCOCC1` (centres undefined), the Potency was “inactive”.
In the case of `COc1ccc(-c2nc(Cn3c(SCc4ccc(F)cc4)nc4cccnc43)c(C)o2)cc1`, the Potency is reported as active: 2.91 µM.
With `CN(Cc1ccccc1)/C(=N/O)c1cccc(Cl)c1` the Potency was “inactive”.
With `CC(=O)c1cccc(NC(=O)c2ccc3nc(C(C)C)oc3c2)c1` the Potency was inconclusive: 23.1 µM [inhibitor, single point].
With `CCn1c(SCC(=O)N2CCOCC2)nc2c([nH]c3ccccc32)c1=O` the Potency was “inactive”.
For `O=C(NCCc1cccs1)C1CC(c2ccc([N+](=O)[O-])cc2)=NO1` (centres undefined), the Potency was inconclusive: 23.1 µM [inhibitor, single point].
In the case of `Cc1cccc2cc(CNCCCN3CCCC3=O)c(N3CCN4CCCC4C3)nc12` (centres undefined), the Potency is reported as inconclusive: 25.9 µM [inhibitor, single point].
With `O=CN1CCN(C2CC(=O)N(c3ccc(Br)cc3)C2=O)CC1` (centres undefined) the Potency was “inactive”.
In the case of `COc1ccc(-c2cc(C(F)F)n3ncc(C(=O)Nc4c(C)n(C)n(-c5ccccc5)c4=O)c3n2)cc1`, the Potency is reported as inconclusive: 8.2 µM [inhibitor, partial curve].
In the case of `O=C(NCc1cccc(Cl)c1)C1Cc2c(-c3ccc(Cl)cc3)ccnc2O1` (centres undefined), the Potency is reported as inconclusive: 18.4 µM [inhibitor, single point].
For `O=C(NNc1c(Cl)cncc1Cl)c1cccs1`, the Potency was “inactive”.
In the case of `CC(Sc1ncnc2ccccc12)C(=O)Nc1ccc2c(c1)OCO2` (centres undefined), the Potency is reported as inconclusive: 29.1 µM [inhibitor, single point].
With `CC1=C(C(=O)N2CCOCC2)CC(CC(=O)NCCCCc2ccccc2)C(=O)N1Cc1ccc(F)cc1` (centres undefined) the Potency was “inactive”.
For `Cc1ccc(CSc2nc3c(c(=O)[nH]2)C(c2cccc(F)c2F)CC(=O)N3)cc1` (centres undefined), the Potency was active: 14.6 µM.
With `COc1ccc(-c2nc(NC3=NCCCCC3)sc2C)cc1` the Potency was inconclusive: 11.6 µM [inhibitor, single point].
For `Cc1cc(Cl)ccc1OCC(=O)NCCC(=O)O`, the Potency was “inactive”.
With `CCN(CC)c1ccc2c(c1)C(=O)N(C)C2=O` the Potency was inconclusive: 0.0164 µM [inhibitor, full curve, poor fit].
For `Cc1cc(C)n2nc(SCC(=O)NC3CCCCC3)nc2n1`, the Potency was “inactive”.
In the case of `O=C(NC1CCCCC1)C12CC3CC(C1)CC(n1cncn1)(C3)C2`, the Potency is reported as “inactive”.
In the case of `CN(c1cccc(NC(=O)c2ccc(Cl)c(S(=O)(=O)Nc3ccccc3)c2)c1)S(C)(=O)=O`, the Potency is reported as inconclusive: 10.3 µM [inhibitor, partial curve].
For `COc1ccc(N2CCN(C(=O)c3nn(-c4ccc(C)cc4)c(=O)n(C)c3=O)CC2)cc1`, the Potency was inconclusive: 20.6 µM [inhibitor, single point].
In the case of `Cn1ccc(C(=O)Nc2ccc3c(c2)OCCO3)n1`, the Potency is reported as inconclusive: 29.1 µM [inhibitor, single point].
In the case of `O=c1n2c(c(O)n1C1CCCCC1)C(c1ccccc1)=Nc1ccccc1C2`, the Potency is reported as inconclusive: 0.731 µM [inhibitor, full curve, poor fit].
For `Cc1ccc(C)c(Nc2nnc(-c3ccc(C)c(S(=O)(=O)N4CCCCC4)c3)c3ccccc23)c1`, the Potency was active: 4.11 µM.
In the case of `Cc1ccc(NC(=O)c2cc(S(=O)(=O)N3CCOCC3)cn2C)cc1Cl`, the Potency is reported as inconclusive: 16.4 µM [inhibitor, single point].
With `CSc1nc2ccc(NC(=O)c3c(F)cccc3F)cc2s1` the Potency was inconclusive: 29.1 µM [inhibitor, single point].
In the case of `COc1ccccc1/C=C1\SC(=S)N(CCC(=O)NC2=NCCS2)C1=O`, the Potency is reported as “inactive”.
With `CCN(CC)c1ccc(NC(=O)Cn2c(C(C)NC(=O)c3ccccc3)nc3ccccc32)cc1` (centres undefined) the Potency was inconclusive: 29.1 µM [inhibitor, single point].
For `CCCCN1CC(COCc2ccccc2)Oc2cccc(F)c2S1(=O)=O` (centres undefined), the Potency was inconclusive: 20.6 µM [inhibitor, single point].
In the case of `O=S(=O)(c1ccccc1)N1CCN=C1SCc1ccccc1Cl`, the Potency is reported as inconclusive: 23.1 µM [inhibitor, single point].
With `COc1cc2ncc3c(-c4ccccc4)nn(-c4ccc(C)cc4)c3c2cc1OC` the Potency was active: 16.4 µM.
In the case of `N/C(=N\c1nc(CSc2nc3ccccc3s2)cc(=O)[nH]1)Nc1ccc(F)cc1`, the Potency is reported as inconclusive: 16.4 µM [inhibitor, partial curve].
In the case of `COc1cccc(CNC(=O)CN(C)S(=O)(=O)c2ccc3c(c2)c(=O)n(C)c(=O)n3C)c1`, the Potency is reported as “inactive”.
With `Cc1cc(C)n(-c2ccc(NC(=O)C3CCCCN3C(=O)c3occc3C)cc2)n1` (centres undefined) the Potency was inconclusive: 25.9 µM [inhibitor, single point].
With `CC(=O)C1CCCN(C(=O)c2ccc3nc(Cc4cccc(Cl)c4)oc3c2)C1` (centres undefined) the activity change, negative = growth inhibition was inconclusive: -32.3% [inhibitor].
With `CCOC(=O)C1=CCN(S(=O)(=O)c2ccc(F)cc2)C1c1cccc(Cl)c1` (centres undefined) the Potency was “inactive”.
For `COc1ccc(CNC(c2ccccc2)c2ccc(Cl)cc2)cc1` (centres undefined), the Potency was inconclusive: 20.6 µM [inhibitor, single point].
In the case of `Cc1ccc(CNc2ncnc3cc(Cl)ccc23)o1`, the Potency is reported as active: 10.3 µM.
For `CN(CC(=O)Nc1ccccc1Cl)C(=O)COC(=O)C1CC1`, the Potency was “inactive”.
With `Cc1ccc(OCC(=O)Nc2ccc3nc(SCC(=O)N(C)c4ccccc4)sc3c2)cc1` the Potency was inconclusive: 18.4 µM [inhibitor, single point].
For `COc1cc(S(=O)(=O)N2CCCCC2)ccc1NC(=O)/C=C/c1ccccc1`, the Potency was inconclusive: 29.1 µM [inhibitor, single point].
With `COc1ccccc1C(=O)OCC(=O)Nc1ccc(N2CCCCC2)cc1` the Potency was inconclusive: 22.4 µM [inhibitor, single point].
For `COc1ccc(/C=N/NC(=O)CN(C)C(=O)OCc2ccccc2)cc1OC`, the Potency was “inactive”.
In the case of `COc1cc(C(=O)NCCC(C)C)ccc1OCc1ccc(Cl)cc1Cl`, the Potency is reported as inconclusive: 16.4 µM [inhibitor, single point].
For `COc1ccc(S(=O)(=O)Nc2ccc3c(c2)C(=O)N([C@H](C)CO)C[C@H](C)[C@@H](CN(C)C(=O)NC2CCCCC2)O3)cc1`, the Potency was “inactive”.
With `CCOC(=O)C(=O)N(C)c1c(CC)nc2c(OCc3ccccc3OC)cccn12` the Potency was “inactive”.
With `CN(C)C(=O)NC(NC(=S)Nc1ccccc1)C(Cl)(Cl)Cl` (centres undefined) the Potency was inconclusive: 29.1 µM [inhibitor, single point].
In the case of `O=C(Nc1nc2ccccc2s1)C1CCN(S(=O)(=O)c2cc([N+](=O)[O-])ccc2Cl)CC1`, the Potency is reported as active: 14.6 µM.
With `Cc1ccc(C)c(Cn2ncc3ccccc32)c1` the Potency was “inactive”.
With `N#C/C(=C\c1ccc(-c2ccc(C(=O)O)cc2)o1)c1nc2ccccc2[nH]1` the Potency was inconclusive: 29.1 µM [inhibitor, single point] and inconclusive: 23.1 µM [inhibitor, partial curve].
With `COC(=O)c1ccc(Oc2ccc(S(=O)(=O)N3CCCCC3)cc2N)cc1` the Potency was inconclusive: 29.1 µM [inhibitor, single point].
For `Cc1cc(C)n(CC(O)COc2cccc(OCC(O)Cn3nc(C)cc3C)c2)n1` (centres undefined), the Potency was inconclusive: 23.1 µM [inhibitor, single point].
In the case of `O=C(COc1ccc(C(=O)c2ccccc2)cc1)Nc1cccnc1`, the Potency is reported as active: 5.17 µM.
In the case of `CCN(CC)S(=O)(=O)c1ccc(NC(=O)COC(=O)CN2C(=O)c3ccccc3C2=O)cc1`, the Potency is reported as inconclusive: 0.651 µM [inhibitor, full curve, poor fit].
With `O=C(NCCc1ccccn1)C(F)(F)C(F)(F)C(F)(F)C(F)(F)C(F)(F)C(F)(F)C(F)(F)C(F)F` the Potency was “inactive”.
With `COc1ccccc1-c1nnc(SCC(=O)NC2CC2)n1C` the Potency was “inactive”.
In the case of `CC(c1nc2ccccc2[nH]1)n1c(=O)c(-c2cccs2)nc2ccccc21` (centres undefined), the Potency is reported as inconclusive: 25.9 µM [inhibitor, single point].
With `COc1ccc(NS(=O)(=O)c2ccc(C)c(C(=O)N3CCN(Cc4cc(OC)ccc4OC)CC3)c2)cc1` the Potency was active: 20.6 µM.
With `CCc1ccccc1Nc1nn2c(=O)c3ccc(C(=O)NCc4ccccc4Cl)cc3nc2s1` the Potency was inconclusive: 5.8 µM [inhibitor, partial curve].
In the case of `Cc1cc(C(=O)NNC(=S)NC(C)c2ccccc2)c2ccccc2n1` (centres undefined), the activity change, negative = growth inhibition is reported as inconclusive: -31.2% [inhibitor].
With `CCOc1ccc2ccccc2c1C(=O)N1CCN(c2ccccc2)CC1` the Potency was inconclusive: 29.1 µM [inhibitor, single point].
For `CCOC(=O)c1c(C)[nH]c(C)c1C(=O)COC(=O)[C@@H](NC(=O)c1ccccc1OCC)C(C)C`, the Potency was inconclusive: 16.4 µM [inhibitor, single point].
